In ChEMBL document CHEMBL4888484, “Replenishing the malaria drug discovery pipeline: Screening and hit evaluation of the MMV Hit Generation Library 1 (HGL1) against asexual blood stage Plasmodium falciparum ,using a nano luciferase reporter read-out” (2022):
Out of some 150,000 compounds screened, about 540 (0.36%) showed an effect of 50% or more. Some of the results follow.

tested on: Plasmodium falciparum; assay: Primary screen in NF54 nanoGlo assay, in single point, at 2uM, 72h; a lower Z score goes with more inhibition; type: functional, Erythrocyte; conditions: timepoint 72 hour

| Compound | % Inhibition [%] | Z score |
| --- | --- | --- |
| CC1=C(C(=O)N2CCOCC2)[C@H](c2ccc(OCc3ccccc3)cc2)n2ncnc2N1 | 31 | -3.51 |
| COc1c[nH]c(C(=O)Nc2ccc(-n3cnnn3)cc2)cc1=O | -4 | 0.47 |
| COc1ccc(C(=O)Nc2cccc(C(C)(C)C)c2O)nn1 | -4 | 0.64 |
| CC(C)Cc1nc(N2CCCC2)c(C#N)c2c1COC(C)(C)C2 | -11 | 1.34 |
| CC(C)S(=O)(=O)[C@@H](C)C(=O)Nc1ccc2[nH]c(C3CCC3)nc2c1 | 0 | 0.03 |
| CO[C@H]1CN(C)C[C@@H]1NC(=O)C(=O)c1ccccc1 | -10 | 1.57 |
| Cc1ccc(NC(=O)c2sc(-c3cccs3)nc2C)c(Cl)c1 | -14 | 1.73 |
| Cc1ccc(C(=O)N[C@H]2CCS(=O)(=O)C(C)(C)C2)c2c1CCC2 | 10 | -1.91 |
| C[C@@H]1CN(S(=O)(=O)c2cccc(C(=O)NCC3CCOCC3)c2)CCN1 | -2 | 0.35 |
| COCC(=O)Nc1ccc2c(c1)CN(C(=O)c1cc(C)nn1C)CCO2 | -4 | 0.86 |
| CC(C)CC(CCO)CNC(=O)N1CCOCC1C (stereo not drawn) | -19 | 2.4 |
| N#C[C@]1(NC(=O)c2ccc3c(c2)CCCCC3=O)CCc2ccccc2C1 | -14 | 1.76 |
| Cc1cc(Cl)ccc1-c1ccc2nc(-c3ccc(Cl)cc3)c(CN3CCN(S(=O)(=O)c4ccc(F)cc4)CC3)n2c1 | -5 | 0.46 |
| COCCOCCc1nc(C(=O)NCCc2ccsc2)c[nH]1 | -9 | 1.08 |
| COCC1(c2nc(-c3ccc(OC(F)F)c(OC)c3)no2)CCC1 | 9 | -1.6 |
| Cc1noc(COc2ccc(C(=O)N(C)[C@@H](C)c3nc(C)no3)cn2)n1 | 0 | 0.01 |
| O[C@@H](CNCc1ccc(C2CC2)cc1F)c1ccccn1 | -18 | 1.62 |
| CCc1c2c(nc3ccccc13)CCS2(=O)=O | -13 | 2.35 |
| C[C@H]1CN(C(=O)Nc2ccc(OCc3cccnc3)cc2)CCO1 | -10 | 1.13 |
| CN1CCC2(CC1)CCN(C(=O)Cc1ccc3c(c1)COC3)C2 | -6 | 0.72 |
| COc1cccc(N2CCN(c3cc([C@H]4C[C@@H](N)C4)ncn3)CC2(C)C)c1 | -9 | 1.39 |

| Compound | % Inhibition [%] | Z score |
| --- | --- | --- |
| CC(C)N1C2CCC1CN(Cc1ccc(C(=O)O)cc1)CC2 (stereo not drawn) | -2 | 0.38 |
| CC1CCC(N(Cc2nnc(C3CCC3)o2)C2CCC(O)CC2)CC1 (stereo not drawn) | 1 | -0.07 |
| CC1(C)COCCN1C(=O)COCC(=O)N1CCOCC1(C)C | -3 | 0.62 |
| Cc1ocnc1C(=O)N(CCN(C)C)C1CCCCC1 | -8 | 0.77 |
| O=C(c1cccs1)N1CCC[C@H](Oc2cnccn2)C1 | -11 | 1.86 |
| CCn1cc(CN2C[C@@H](Oc3ccccc3)C[C@H]2C(N)=O)c(C)n1 | -10 | 1.54 |
| CC(C)(C)c1ccc(C(=O)N2CCOC[C@](O)(CN3CCCC3)C2)cc1 | 6 | -0.85 |
| CCc1ccccc1C(=O)N1CCC(N2CCCOCC2)CC1 | -1 | 0.08 |
| COCC(=O)NC[C@@H]1C[C@H](F)CN1C(=O)CCc1nc2ccccc2s1 | -5 | 0.91 |
| CCOC(=O)c1sc(Nc2cnn(C)c2C)nc1C | 26 | -3.46 |
| COc1ccc(CNC(=O)c2c(O)n3c4c(cccc4c2=O)CCC3)cc1OC | -10 | 0.87 |
| CC1CCC(N2CCC(N(C)C(=O)Nc3cccc4ccccc34)CC2)CC1 (stereo not drawn) | 16 | -2.07 |
| O=C(NCc1ccccc1Cl)c1nnc(-c2ccccc2)o1 | -11 | 1.65 |
| C#CCCC1(CCC(=O)N2CC(n3cccn3)C2)N=N1 | -11 | 1.31 |
| CCCC[C@@H](C(=O)Nc1cc(C)on1)N1CCN(c2ncccn2)CC1 | 2 | -0.3 |
| COc1cc2c(cc1CNC(=O)c1ncoc1C)OCCO2 | -8 | 1.31 |
| O=C(Nc1cccc(Cn2ccnc2)c1)c1sccc1S(=O)(=O)N1CCOCC1 | 11 | -1.52 |
| Cc1c(NC(=O)CCCn2cncn2)cccc1-c1nncn1C | -18 | 1.82 |
| CC[C@@H](CNS(C)(=O)=O)NC(=O)c1ccc(C)c2c1CCC2 | 25 | -2.88 |
| Cc1cccc(-n2nc3nc(NCCN4CCCCC4)nc(-c4ccccc4)c3c2N)c1 | -3 | 0.26 |
| O=C(NCCc1ccn(-c2ccccc2)n1)c1nn(-c2ccc(F)cc2)cc1O | 15 | -1.78 |

| Compound | % Inhibition [%] | Z score |
| --- | --- | --- |
| CC(C)(C)c1cc(CCC(=O)Nc2c3c(nc4ccccc24)CCCC3)cc(C(C)(C)C)c1O | -9 | 1.77 |
| CCn1nc(CN2CCC(NC(=O)Cc3ccc(OC)cc3)CC2)c2c1CCOC2 | -19 | 1.7 |
| CN(C)S(=O)(=O)N1CCC(C(=O)NCc2ccccc2CN2CCOCC2)CC1 | 12 | -1.61 |
| COC(=O)C1CCC(NC(=O)NC2CCC(C)CC2C)CC1 (stereo not drawn) | -3 | 0.3 |
| C[C@@]12CN(C(=O)C3CCC(S(C)(=O)=O)CC3)C[C@@H]1[C@@H]1CC[C@H]2C1 (stereo partly drawn) | 4 | -0.36 |
| COc1cccnc1C(=O)N1c2ccccc2CC[C@H]1C(=O)N1CCN(C)CC1 | 3 | -0.57 |
| Cc1nc(N(C)C)sc1CN(C)CCc1ccncc1 | -6 | 0.8 |
| CCn1ccnc1CS(=O)(=O)C1CCCCC1 | -12 | 1.82 |
| c1cncc(-c2noc(CN3CCCc4ccccc43)n2)c1 | 2 | -0.28 |
| CCN1C[C@H](CN(C)c2nn(C)c(=O)n(C)c2=O)Oc2ccccc21 | -15 | 1.95 |
| Cc1cnc(NCCCN(C)c2ccccc2)nc1 | 3 | -0.48 |
| Cc1cccc(-c2noc(N3CCOCC3)c2CN(Cc2ccc(F)cc2)C(=O)c2ccccc2)c1 | 3 | -0.41 |
| O=C(Cc1n[nH]c(-c2cccnc2)n1)NCc1ccccc1 | -1 | 0.09 |
| O=C(Nc1ccc2c(c1)cc(C(=O)NCCN1CCOCC1)n2Cc1cccc(F)c1)c1ccccc1Cl | -10 | 1.29 |
| CC(C)CN1C[C@@H]2C[C@@H](O)CN2C2(C1)CN(Cc1ccccc1F)C2 | 0 | -0.06 |
| O=C(NC1CCOc2ccccc21)C1CC(O)CN1 (stereo not drawn) | 7 | -1.04 |
| CC(C)Oc1cccc(Cn2nnnc2N(C)C[C@H]2COCCO2)c1 | -8 | 0.87 |
| O=C1C[C@H](NC(=O)c2cccc3ccccc23)CN1 | -2 | 0.3 |
| Cc1cc(C(=O)N2CCN(C[C@H](C)O)CC2)c2c(C3CC3)noc2n1 | 0 | 0.02 |
| CC(C)c1noc(-c2ccc(-c3cc[nH]n3)cc2)n1 | -3 | 0.59 |
| COCc1nc([C@H]2CCN(C(=O)Cc3ccccc3)C2)no1 | -2 | 0.44 |

| Compound | % Inhibition [%] | Z score |
| --- | --- | --- |
| O=C(OCCc1n[nH]c(CCOC(=O)c2ccccc2)n1)c1ccccc1 | -2 | 0.33 |
| O=C1C2C3c4ccccc4C(c4ccccc43)[C@@H]2C(=O)N1c1nc(-c2ccccc2)cs1 (stereo partly drawn) | 5 | -0.78 |
| O=C1NCCCc2[nH]c(-c3nncn3C3CCCCC3)nc21 | -16 | 1.44 |
| COCCOCCC(=O)NC[C@H](C)c1nc2ccccc2o1 | -4 | 0.82 |
| COC(=O)[C@H]1CC[C@H](C(=O)N2CCC=Cc3ccccc32)CC1 | 2 | -0.19 |
| COCC(=O)N1CCN(C(=O)c2c(-c3ccccc3)oc(C)c2C)CC1 | -13 | 1.69 |
| CN1CC(=O)N2CCN(CCC(F)(F)F)C[C@H]2C1=O | 2 | -0.3 |
| O=C1C[C@]2(NC(=O)CC3CCN(CC(F)F)CC3)CCCC[C@@H]2N1 | -7 | 1.34 |
| CN(C[C@H]1CCCCO1)C(=O)NCc1nc[nH]n1 | 1 | -0.17 |
| C[C@@H](CCNC(=O)c1cc(-c2ccsc2)n[nH]1)n1ccnc1 | -4 | 0.68 |
| CCn1cnc2c(NCc3ccnc(C(F)(F)F)c3)ncnc21 | -3 | 0.42 |
| Cc1cc(N2CCC(NC(=O)CN3CCN(C(=O)OC(C)(C)C)CC3=O)CC2)ncn1 | -4 | 0.47 |
| Cc1ccsc1C(=O)Nc1ccc(N(C)C)nc1 | -6 | 0.84 |
| O=C(CN1C(=O)COc2ccc(C(=O)N3CCCC3)cc21)N1CCN(c2cccc(Cl)c2)CC1 | -3 | 0.46 |
| COc1ccc(-c2cc(C(F)F)nc(N[C@@H](C)c3ccc(N4CCOCC4)cc3)n2)cc1OC | 11 | -1.69 |
| C[C@H]1CN(C(=O)c2ccc3nccn3c2)CCN1 | -5 | 0.86 |
| CCC1(CO)CCN(C(=O)NCCc2ccsc2)CC1 | -14 | 1.44 |
| CO[C@@H]1CS(=O)(=O)[C@H]2CN(C(=O)Nc3cccc(-c4ncco4)c3C)C[C@@H]12 | -8 | 1.16 |
| O=C(NCc1cccc(Br)c1)[C@H]1CCCN(c2nc3ncccc3n3cccc23)C1 | -23 | 2.69 |
| CCNc1cc(C(=O)N2CCC3CCCCC32)ccn1 (stereo not drawn) | -10 | 1.06 |
| CC(C)(C)OC(=O)N[C@@H](Cc1ccccc1Cl)C(=O)O | 16 | -1.89 |
